From article PMC12136788
The list shows a part of the results.

B1: chr3:66380370:66380471:-|CDS|ENSG00000144749|msi1|total|mutant (ssRNA)
RNA: GGGAGUUCUACAGUCCGACGAUCCGGUCAAGUGGGGGUCUGACAGGUUCGUUCUUUCCUUGCCGGGGAUUCUUCCUGGACUUCCGCAAGGUUGUAUCACCCGGACUCCACAGAGCUACAGCCUGCAUCUUCAUUAACUUCAGGCAACAGAGGAUUGAGCAUCA
B2: chrY:12776687:12776788:+|CDS|ENSG00000114374|msi1|total|mutant (ssRNA)
RNA: GGGAGUUCUACAGUCCGACGAUCGUUUUUGAUGGUGACAAAAACAGCAUUAAUUGUGCAAGACAAGAAGCCAUUCGAAUGGUCCGAGUAUUAACUGUUAUAAAAGAGUACAUUAAUGAAUGUGACAGUGAUUAUCACAAGGAACAACAGAGGAUUGAGCAUCA
B3: ENSG00000107863:be:win_2701|CDS|ENSG00000107863|bound_else_gene|NA|bound_elsewhere_windowed (ssRNA)
RNA: GGGAGUUCUACAGUCCGACGAUCUCUAGUCUGAAGGGAAUCAAGAUCGCAGACAGCCAAAAGUCAUCAGAAGACUCUGGGUCCAGAAAAGAUUCUUCCUCAGAGGUCUUCAGUGAUGCUGCCAAGGAAGGGUGGCUUCAUUUCCAACAGAGGAUUGAGCAUCA
B4: ENSG00000107863:be:win_4201|CDS|ENSG00000107863|bound_else_gene|NA|bound_elsewhere_windowed (ssRNA)
RNA: GGGAGUUCUACAGUCCGACGAUCAAGGAUCAGUAUAGCAGGGAACUGCUUGUGUCCUCCAUCUUUGCAGCUGCUAGUCGCAAGAGGAAGAAGCCGAAAGAAAAAGCACAGCCUAGCAGCUCAGAAGAUGAACUGGACAAUGUACAACAGAGGAUUGAGCAUCA
B5: chr1:35359206:35359314:+|CDS|ENSG00000146463|unk|total|mutant (ssRNA)
RNA: GGGAGUUCUACAGUCCGACGAUCAAAGACUUUCCUAAACAAUUUGAUCAGGUUUCUGUCUUUAAAUCAAUACGGAAAGAUUUCCGUCCCGUAAGAGAAAACAGCAAAGAGACAUUUUCUGGAAAGGAGAAAAACCGAGACCUACAACAGAGGAUUGAGCAUCA
B6: chr10:68791452:68791550:+|3pUTR|ENSG00000060339|msi1_unk|total|mutant (ssRNA)
RNA: GGGAGUUCUACAGUCCGACGAUCCCCGCCUUCAAAUUAUUAAACACUCCUUGAGUGAAAUAAUUUUGCAUUGCAAAGUGUUUCCGGAUGAACUUUGUUACCGUUUUAACUCCAAUAAAGUUCAUCAGUUUAAUUGACUGCCGUCAACAGAGGAUUGAGCAUCA
B7: chr2:105361111:105361195:-|3pUTR|ENSG00000115641|msi1_unk|FALSE|overlapping (ssRNA)
RNA: GGGAGUUCUACAGUCCGACGAUCCUUUCUCACCCAGGCAAUCUUGCCUUCUGGUUUCUUCCAGCCACAUUGAGACUUUCUUCUAGUGCUUUUCAGUGAUACUCACGUUUGCUUAAACCCUUUAGUGCUUUGUGAUAGUUCAGUCAACAGAGGAUUGAGCAUCA
B8: chr4:7762510:7762611:-|3pUTR|ENSG00000196526|msi1|FALSE|unique (ssRNA)
RNA: GGGAGUUCUACAGUCCGACGAUCGUGCAAUAUUUCUUGGAGAAUUUGGAUGCCUAAGGCAUAAAGGAAAAAAACAGAGUUCAUAGUUUGAGCUGGUAUUUACCCCCUGGGUUUAAAAAUCAGAUUAACUUCUUGGUCUCCCGGCAACAGAGGAUUGAGCAUCA
B9: chr10:103302795:103303961:-|three_prime_utr|ENSG00000156374|control|control|control (ssRNA)
RNA: GGGAGUUCUACAGUCCGACGAUCGUCUGCUUGUCCUUCAUUAUGGUCUUGUGGUUUCUCCUCUGAAGAUAACUUGAAGAUUCUAGGCACAUUAUGAGGAGGGAAACAAAGGAGGCUUCUGCAGGACUGCAUCUCACCAAAGAUCAACAGAGGAUUGAGCAUCA
B10: ENSG00000198589:be:win_2851|CDS|ENSG00000198589|bound_else_gene|NA|bound_elsewhere_windowed (ssRNA)
RNA: GGGAGUUCUACAGUCCGACGAUCUCUUCAACUUCAGUUCAAGCAGCCUCUGGCAUUAGAAGGGAUAUUAAUGUUUCAGUAGGAUCCCAGCAACCAGAUACGAAGGAUUCUCCUGUCUGUCCUCAUUUCACCACAAAUGGUAAUCAACAGAGGAUUGAGCAUCA
B11: chr18:31624441:31624542:-|3pUTR|ENSG00000118276|unk|total|mutant (ssRNA)
RNA: GGGAGUUCUACAGUCCGACGAUCAUUAAAUAUUCUAUUUUUAUAAAGAUAAAUACUCCGCCGAUAAAAACAAAUUUUAAGUUCCGUUUUCAGACACCGAAUUUCACUUUUGGAGGGGACCCUUGAAUGUCCGUUUCAUUCAAACAACAGAGGAUUGAGCAUCA
B12: chr12:109281406:109281799:-|CDS|ENSG00000139445|control|control|control (ssRNA)
RNA: GGGAGUUCUACAGUCCGACGAUCCGCCCUGCCGGACCUCAGCCCCAGCCCGCUCCCCCACCCCGCCAUGGGAAGGGCUCCUGUAGACUUCAUCAACAUCAGCACCGACAUGAACACUGAGGUGGAUGCCCUCGACCCGAGCAUCAACAGAGGAUUGAGCAUCA
B13: chr10:70435285:70435983:-|CDS|ENSG00000156574|control|control|control (ssRNA)
RNA: GGGAGUUCUACAGUCCGACGAUCCAGGCCUCUCUCCAAGUGGCUGAAGCACCCUGGGGCCCUGGAGAAGCAGAUGUCCAGGGUAGCUGGAGAGUGCUGGCCGCGGCCCCCCACACCGCCUGCCACCAAUGUGCUCCUUAUGCUCAACAGAGGAUUGAGCAUCA
B14: chr19:48404743:48404844:+|CDS|ENSG00000105464|unk|total|mutant (ssRNA)
RNA: GGGAGUUCUACAGUCCGACGAUCCGAGCAACAGCUUCAGGUCAUCUUUGAGGUGCUGGAGGAGUAUGACUGGACGUCCUUUGCCGCCGUGACCACUCGUGCCCCUGGCCACCGGGCCUUCCUGUCCUACAUUGAGGUGCUGACCAACAGAGGAUUGAGCAUCA

molecular target: T1, UNK ZnF1-6 (called full-length) (human, UniProt Q9C0B0 30-357); test: nsRBNS (natural sequence RNA bind-n-seq); RBNS binding buffer (assumed for nsRBNS): 25 mM Tris pH 7.5, 150 mM KCl, 3 mM MgCl2, 0.01% Triton X-100, 500 ug/ml BSA, 20 U/ml SUPERase-In, 4 C; UNK is unkempt and MSI1 is Musashi-1; names of the RNAs are library labels; protein concentration not given here; high values mean tight binding
T1 sequence: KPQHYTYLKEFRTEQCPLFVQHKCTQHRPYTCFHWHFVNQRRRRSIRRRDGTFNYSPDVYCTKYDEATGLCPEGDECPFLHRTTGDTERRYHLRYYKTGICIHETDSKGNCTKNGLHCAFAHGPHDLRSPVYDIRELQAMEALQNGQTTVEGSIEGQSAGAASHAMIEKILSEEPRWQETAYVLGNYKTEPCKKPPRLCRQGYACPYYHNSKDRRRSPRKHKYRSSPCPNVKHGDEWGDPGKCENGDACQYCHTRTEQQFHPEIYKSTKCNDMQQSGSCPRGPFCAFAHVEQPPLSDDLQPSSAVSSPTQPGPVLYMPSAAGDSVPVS

Row | Binder | binding signal [enrichment R]
1 | B1 | 0.685
2 | B2 | 0.375
3 | B3 | 0.589
4 | B4 | 0.516
5 | B5 | 0.253
6 | B6 | 0.315
7 | B7 | 0.691
8 | B8 | 0.303
9 | B9 | 0.729
10 | B10 | 0.493
11 | B11 | 0.867
12 | B12 | 1.15
13 | B13 | 0.659
14 | B14 | 0.586
